Data as given in ChEMBL document CHEMBL1201862, “PubChem BioAssay data set” (2004).
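Step 1: Grow cells in 96-well plates. Step 2: Expose to compound for 48 hours at 5 concentrations. Step 3: Interpolate endpoints linearly; if unreached, use highest concentration. Abbreviation: GI50, concentration required for 50% inhibition of growth.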 The source made the active and inactive calls. Rule as the data show it: active = GI50 up to about 1.1 µM and inactive = higher.

The compounds below were run on NCI-H322M (assay: NCI-60 cell line screen, 48 h).

SMILES	GI50
O=C1c2cccc3cccc(c23)C(=O)N1CCCNCCCNCCCCNCCCNCCCN1C(=O)c2cccc3cccc(c23)C1=O	inactive: 2.88 µM
C=CCOC(OCC=C)/C(Br)=C/C	inactive: > 100 µM
CN(C)CCNC(=O)c1cc([N+](=O)[O-])cc2c1Oc1ccccc1O2	inactive: 27.9 µM
COC(OC)(c1ccccc1)C(Br)Br	inactive: > 100 µM
COc1cccc(-c2ccc3c4c2O[C@H]2c5[nH]c6ccccc6c5C[C@@]5(O)[C@@H](C3)N(CC3CC3)CC[C@]425)c1	inactive: 2.23 µM
Nn1c(=S)[nH]nc(/C=C/c2c(O)ccc3ccccc23)c1=O	inactive: 5.5 µM
CCCCC(C(=O)C(=O)Nc1ccccc1CC)C(=O)C(C)C (stereo not drawn)	inactive: > 100 µM
Cc1cc(C)nc(NS(=O)(=O)c2ccc(NNc3c4ccccc4nc4c(C(=O)Nc5ccc(S(=O)(=O)Nc6ncccn6)cc5)cccc34)cc2)n1	inactive: 38 µM
CC1=C(C(=O)Nc2ccccc2)C(c2ccc(C3C(C(=O)Nc4ccccc4)=C(C)NC(C)=C3C(=O)Nc3ccccc3)cc2)C(C(=O)Nc2ccccc2)=C(C)N1	inactive: 7.91 µM
Nc1cc(N2CCOCC2)nc(=O)n1-c1ccccc1	inactive: > 100 µM
CN(C)CCNC(=O)c1cccc2ccc(-c3ccncc3)nc12	inactive: 4 µM
CN(C)c1ccc(/C=C2\N=C(c3ccccc3)N(c3ccc4c(c3)Sc3cc(N5C(=O)/C(=C/c6ccc(N(C)C)cc6)N=C5c5ccccc5)ccc3N4)C2=O)cc1	inactive: 16.8 µM
C[C@@H]1[C@@H](C)C(c2ccccc2)O[Si]1(C(C)(C)C)C(C)(C)C (stereo partly drawn)	inactive: 16.4 µM
O=C(Nc1nnc(-c2ccccc2)o1)C(SC(=S)N1CCOCC1)c1ccccc1 (stereo not drawn)	inactive: 11.8 µM
c1ccc2c(c1)n1nnnc1c1nnnn21	inactive: > 100 µM
C=CCC1CC(n2cc(C)c(=O)[nH]c2=O)OC1CO[Si](C)(C)C(C)(C)C (stereo not drawn)	inactive: 15.2 µM
COc1ccc(/C=C/C(=O)C(C)C)cc1	inactive: 71.9 µM
O=S(=O)(N/C(=N\O)Nc1ccc(Cl)cc1)c1cc(C(F)(F)F)cc(C(F)(F)F)c1	inactive: 18.9 µM
CC(C)=CCC[C@@H](C)C1=C(N)C(=O)C(C)=C(O)C1=O	inactive: 46.7 µM
CC[C@H]1CN2CCc3cc(OC)c(OC)cc3[C@@H]2C[C@@H]1C[C@H]1NCCc2c1[nH]c1ccc(O)cc21 [TUBULOSINE]	active: 0.0124 µM
CCC12CCCN(Cc3ccccc3)C1c1c(n(C)c3ccccc13)C(CO)C2 (stereo not drawn)	inactive: 49.3 µM
COC(=O)c1c2c(cc3c1CC1(C3)Cc3cc4c(c(C(=O)OC)c3C1)CCCC4)CCCC2	inactive: > 100 µM

SMILES	GI50
CC(NC(=O)NC(C)(C)C)NC(=O)C(N)CC(=O)O (stereo not drawn)	inactive: > 100 µM
CC1(C)CCCC2(C)[C@@H]1CC[C@]13C[C@](C)(CC[C@@H]21)[C@@H]3CO (stereo partly drawn)	inactive: > 100 µM
C[C@H]1NC(=O)C2CCCCN2C(=O)CN(C)C(=O)CNC(=O)C2CCCCN2C(=O)[C@@H](NC(=O)c2nc3ccccc3cc2O)[C@@H](C)NC(=O)C2CCCCN2C(=O)CN(C)C(=O)CNC(=O)[C@@H]2CCCCN2C(=O)C1NC(=O)c1nc2ccccc2cc1O (stereo partly drawn)	active: 0.299 µM
CC(=O)N(CCN)CCN	inactive: > 10 µM
CCc1ccc2oc(=O)ccc2c1	inactive: > 100 µM
COC(=O)C(Cc1nc2ccccc2nc1O)C(=O)C(=O)Nc1cc(C(F)(F)F)ccc1Cl (stereo not drawn)	inactive: 15.5 µM
Cc1ccc(C(=O)N/N=C(\N=N\c2ccccc2C(=O)O)c2ccc(N(C)C)cc2)cc1	inactive: 51.6 µM
N#CC1(C#N)C2(c3ccccc3)OC(c3ccccc3)(c3cc4ccccc4cc32)C1(C#N)C#N	inactive: 15.5 µM
CCCCCCC(=O)OC[n+]1cccc(-c2c(COC(=O)NC(C)C)c(COC(=O)NC(C)C)c3n2CCC3)c1	inactive: > 78.2 µM
COc1ccc(-c2c3c(nc4nc(SCCc5ccccc5)nc(N)c24)CCCC3)cc1OC	inactive: > 100 µM
Cc1ccc(/C=N/n2c(=O)[nH]c3ccccc3c2=O)cc1	inactive: > 100 µM
O=C(NCc1cccnc1)C1COc2cc(-c3cc(=O)c4ccccc4o3)ccc2O1 (stereo not drawn)	inactive: > 63.8 µM
CC(=O)OCC1(CNc2nc(N)ncc2C#N)CC(CCc2ccccc2)C1 (stereo not drawn)	inactive: > 100 µM
Nc1nc(N)c(-c2ccc(Cl)cc2)c(CCC(=O)Nc2cccc(C(F)(F)F)c2)n1	inactive: > 100 µM
C=CCc1cc(-c2cc(CC=C)c(O)c(CN(CCCl)CCCl)c2)cc(CN(CCCl)CCCl)c1O	inactive: 23.6 µM
CCCCCCCCCCCCCC(=S)N/C=C/OC	inactive: 34.3 µM
O=C(O)Cc1ccc(Nc2nc3cc(C(F)(F)F)ccc3nc2C(=O)O)cc1	inactive: > 100 µM
O=C(Nc1nc(C23CC4CC(CC(C4)C2)C3)cs1)c1cc2cc([N+](=O)[O-])ccc2oc1=O	inactive: > 100 µM
CCN(CC)c1ccc(/N=C2/C=CC(=O)c3ncccc32)c(C)c1	inactive: 16.1 µM
Cc1ccc(C(=O)C(C)N)cc1 (stereo not drawn)	inactive: > 100 µM
Cc1ccc(Sc2ccccc2C23OC(C)(C4C(=O)N(c5ccccc5)C(=O)C42)N(C)C3=O)cc1 (stereo not drawn)	inactive: > 100 µM
Nc1nncc2c1c(Br)cn2C1OC(CO)C(O)C1O (stereo not drawn)	inactive: 21.7 µM

SMILES	GI50
COC(=O)/C(=C\c1ccc(N(CCC#N)CCC#N)cc1)NC(=O)c1cc([N+](=O)[O-])ccc1Cl	inactive: > 100 µM
C[C@H]1C[C@H](C)c2ccccc2N(C)/C1=N\c1ccccc1	inactive: 25.5 µM
COc1cc2c(cc1OC)C(=O)N(c1ccc(O)cc1)C2	inactive: > 100 µM
O=C(C=P(c1ccccc1)(c1ccccc1)c1ccccc1)c1cccc(-c2cccc([N+](=O)[O-])c2)c1	inactive: 3.4 µM
CO/S(=N/S(=O)(=O)c1ccccc1)c1ccccc1[N+](=O)[O-] (stereo not drawn)	inactive: > 100 µM
Nc1ncc(Cc2nc3ccccc3s2)s1	inactive: > 100 µM
O=c1[nH]c2ccc(Cl)cc2c2oc(-c3ccccc3)nc12	inactive: 22.3 µM
CC(C)=CCC/C(C)=C/Cc1c(O)ccc2c1[nH]c1cc(O)c(C)cc12	inactive: > 25 µM
Ic1cccc(/C=C/CN2CCN(CCOC(c3ccccc3)c3ccccc3)CC2)c1	inactive: 22 µM
CCOC(=O)NN(C(=O)OCC)C(C(=O)c1ccccc1)N(NC(=O)OCC)C(=O)OCC	inactive: > 100 µM
O=C1N=C2SC=C(NC(=S)Nc3ccccc3)N2NC12c1ccccc1-c1ccccc12	inactive: > 10 µM
COc1c(OC)c(OC)c(C(=O)/C=C/c2ccccc2)c(OC)c1OC	inactive: 8.49 µM
CSc1csc(-c2ccc(-c3ccc(-c4cc(SC)cs4)s3)s2)c1	inactive: > 100 µM
CN(C)C(=O)CC(C(=O)O)c1c[nH]c2ccccc12 (stereo not drawn)	inactive: > 100 µM
CCOC(=O)C1C(=O)CC(C)(O)C(C(=O)OCC)C1c1ccc(OC)cc1 (stereo not drawn)	inactive: > 100 µM
CC1(C)C[C@@H]2C1CCC1(C)CC2(O)CC[C@H]1O (stereo partly drawn)	inactive: > 100 µM
C[C@@H]1C[C@@H]2C(=O)N(c3ccccc3)C(=O)[C@@H]2c2[nH]c3ccc(Br)cc3c21	inactive: 49.7 µM
CO/N=C/c1c(-c2ccc(Cl)cc2)c(/C=N/OC)n2c1sc1ccccc12	inactive: > 100 µM
CC(=O)/C(=C/NC(=S)Nc1ccccc1)C(=O)Nc1ccccc1C	inactive: > 100 µM
CNC(=O)OCc1nc(SSc2nc(COC(=O)NC)c(COC(=O)NC)n2C)n(C)c1COC(=O)NC	inactive: > 100 µM
COc1ccc2c(c1)-c1c(c3cc(OC)ccc3n1CCN1CCOCC1)CC2	inactive: 64 µM
CC(=O)OCC(OC(C)=O)C(OC(C)=O)C(OC(C)=O)C(=O)CNn1c(-c2ccccc2Cl)nc2ccccc2c1=O (stereo not drawn)	inactive: > 100 µM

SMILES	GI50
Cc1cccc(=O)c(O)c1	inactive: 13.5 µM
COc1cc(/C=C\C(=O)O)ccc1OCc1ccccc1	inactive: > 100 µM
Cc1cc(=O)oc2c(C)c(OCCCOc3ccc4c(C)cc(=O)oc4c3C)ccc12	inactive: > 100 µM
CC(=O)OCC1OC(c2nc3ccccc3s2)=CC(OC(C)=O)C1OC(C)=O (stereo not drawn)	inactive: > 100 µM
Cc1cccc(C(C)(C)C)c1NC(=O)CCc1nnc(S)[nH]1	inactive: > 100 µM
O=C(Nc1nc2ncn(CCOC(=O)c3ccccc3)c2c(=O)[nH]1)c1ccccc1	inactive: > 57 µM
O=C(c1ccccc1)c1ccc(N2C(=O)/C(=C/Cc3ccco3)N=C2c2ccccc2)c(N2C(=O)/C(=C/Cc3ccco3)N=C2c2ccccc2)c1	inactive: > 100 µM
O=c1c2cccnc2[nH]c2ccc3[nH]ncc3c12	inactive: 8.28 µM
COC1=C2CC(C)CC(OC)C(OC(=O)CCCN)C(C)/C=C(\C)C(OC(N)=O)C(OC)/C=C\C=C(/C)C(=O)NC(=CC1=O)C2=O (stereo not drawn)	inactive: 22.5 µM
CCN(CC)CCSc1c(C(C)=O)c(=O)n(-c2ccccc2)c(=S)n1-c1ccccc1	inactive: 44.1 µM
COc1cc2oc(-c3ccc(O)cc3)cc(=O)c2c(O)c1C1OC(CO)C(O)C(O)C1O (stereo not drawn)	inactive: > 100 µM
CC(=O)/C=C1/c2ccccc2N(C(C)=O)C1O (stereo not drawn)	inactive: > 100 µM
O=C(CCC(=O)OCC1OC(O)(CC2OC(CO)C(O)C(O)C2O)C(O)C1O)OCc1ccccc1 (stereo not drawn)	inactive: > 100 µM
COC1=C(OC)C(=O)C(Sc2ccc3ccccc3c2)=CC1=O	inactive: 5.57 µM
O=C(O)c1nnsc1-c1csnn1	inactive: > 100 µM
CC1=NN(c2cc(Cl)c(S(=O)(=O)O)cc2Cl)C2(C1)C(Cl)C(=O)N2c1nc2ccccc2s1 (stereo not drawn)	inactive: > 100 µM
COc1cccc2c1C(=O)c1c(O)c3c(c(O)c1C2=O)C[C@@](O)(C(=O)CO)C[C@@H]3OC1CC(N)C(OC)C(C)O1 (stereo partly drawn)	active: 0.362 µM
[O-][S+]1Nc2c(Cl)cc(Cl)c3c(Cl)cc(Cl)c(c23)N1	inactive: 48.3 µM
Cc1ccc(S(=O)(=O)N2CCCSCCSCCCN(S(=O)(=O)c3ccc(C)cc3)CC2)cc1	inactive: > 100 µM
O=C(NCCN1CCCCC1)c1cccc(I)c1	inactive: > 100 µM
CCOC(=O)C(=CNc1ccc(F)c(F)c1)C(=O)OCC	inactive: > 100 µM
COc1c2c(c3c(c1C1OC(C)[C@@H](C)O1)CC(C)(C)O3)C(=O)c1ccccc1C2=O (stereo partly drawn)	inactive: > 100 µM
